Test results published in PubChem BioAssay AID504339 (National Center for Advancing Translational Sciences (NCATS), 2011).
Among all 390,000 compounds or so, about 17,000 (4.4%) were called active. Inconclusive results, whose numbers are uncertain, are shown with a selection of clear calls. Calls follow the shape of the dose curve; as a rule, active = well fitted inhibition curve with a large enough effect; inconclusive = small, poorly fitted or top-dose-only effect; inactive = no such curve, though single readings can be large or run the other way. A potency beside an inconclusive call is a rough fit, not a confirmed value.

molecular target: Lysine-specific demethylase 4A (Homo sapiens) (UniProt O75164); assay: qHTS Assay for Inhibitors of JMJD2A-Tudor Domain; conditions: AlphaScreen JMJD2A-Tudor / H3K4me3 peptide binding; activity change, negative = inhibition: at 114 µM (top of the series); also: nearly all actives have a fitted effect of over 50% in size
% is scaled to controls: 0 for no effect and ±100 for the full control effect; potency is read from the fitted curve at half-maximal effect; tags tell the direction and shape of the fitted curve.

Sequence of UniProt O75164 (O75164 whole entry, looked up, the tested form may be a part): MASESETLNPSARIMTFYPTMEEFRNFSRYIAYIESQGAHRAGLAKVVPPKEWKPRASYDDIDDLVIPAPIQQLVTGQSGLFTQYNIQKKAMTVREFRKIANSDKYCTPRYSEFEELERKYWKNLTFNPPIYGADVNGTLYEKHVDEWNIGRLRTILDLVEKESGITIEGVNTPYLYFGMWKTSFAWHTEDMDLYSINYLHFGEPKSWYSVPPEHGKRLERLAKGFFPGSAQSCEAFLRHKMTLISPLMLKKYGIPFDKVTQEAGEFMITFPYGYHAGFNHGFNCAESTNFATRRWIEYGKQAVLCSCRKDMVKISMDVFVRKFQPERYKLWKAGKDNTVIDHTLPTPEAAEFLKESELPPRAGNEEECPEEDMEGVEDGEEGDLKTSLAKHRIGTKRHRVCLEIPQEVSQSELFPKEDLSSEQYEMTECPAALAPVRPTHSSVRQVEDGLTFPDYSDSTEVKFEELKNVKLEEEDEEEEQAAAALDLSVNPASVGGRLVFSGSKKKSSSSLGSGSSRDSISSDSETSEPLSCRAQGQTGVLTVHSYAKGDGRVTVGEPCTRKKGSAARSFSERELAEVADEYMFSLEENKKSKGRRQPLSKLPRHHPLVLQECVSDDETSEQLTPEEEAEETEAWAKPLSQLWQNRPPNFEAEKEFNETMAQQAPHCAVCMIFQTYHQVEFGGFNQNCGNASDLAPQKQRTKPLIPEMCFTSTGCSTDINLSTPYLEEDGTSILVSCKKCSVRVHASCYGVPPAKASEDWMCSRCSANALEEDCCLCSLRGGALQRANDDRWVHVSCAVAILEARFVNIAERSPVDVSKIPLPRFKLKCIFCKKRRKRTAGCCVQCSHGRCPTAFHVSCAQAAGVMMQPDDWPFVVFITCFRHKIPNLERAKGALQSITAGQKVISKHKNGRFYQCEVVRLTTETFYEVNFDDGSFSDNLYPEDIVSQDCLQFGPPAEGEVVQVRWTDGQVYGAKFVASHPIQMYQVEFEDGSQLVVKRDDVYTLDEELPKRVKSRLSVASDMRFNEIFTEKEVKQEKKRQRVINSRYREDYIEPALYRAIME

Row | SMILES | Potency | activity change, negative = inhibition
1 | Clc1ccc(NNc2ccnc3cc(Cl)ccc23)cc1 | inconclusive: 5.01 µM [inhibitor, full curve] | –
2 | O=C(CSc1nc(-c2ccccc2)c(-c2ccccc2)o1)N1CCOCC1 | inconclusive: 56.2 µM [inhibitor, partial curve] | –
3 | COc1ccc(CCNC(=O)C23CN(Cc4ccccc4)CC2C(c2cccc([N+](=O)[O-])c2)=NO3)cc1 (configuration not stated) | inconclusive: 22.4 µM [inhibitor, partial curve] | –
4 | COc1ccc(C2C=C(c3ccc(Br)cc3)Nc3nc(N4C(=O)CCC4=O)nn32)cc1 (configuration not stated) | inconclusive: 11.2 µM [inhibitor, full curve, poor fit] | –
5 | CC(C)CSC1=NSC2=NC(=O)/C(=C\c3cccs3)C(=N)N12 | inconclusive: 50.1 µM [inhibitor, partial curve] | –
6 | CCOC(=O)c1c(C)[nH]c(C(=O)C(C)OC(=O)c2ccc(NC(=O)CC#N)cc2)c1C (configuration not stated) | inconclusive: 31.6 µM [inhibitor, partial curve] | –
7 | Cc1ccc(NC(=O)COC(=O)c2nn(C)cc2Cl)cc1 | inactive | –
8 | Cc1cccc(CN2CCSCC2)c1 | active: 20 µM | –
9 | COc1cc(C(=O)c2ccccc2)c(OC)cc1C(=O)Nc1ccc(O)cc1 | inconclusive: 79.4 µM [inhibitor, partial curve] | –
10 | O=C(C1COc2ccccc2O1)N1CCc2ccccc21 (configuration not stated) | active: 79.4 µM | –
11 | CCOCCCNC(=O)c1c[nH]c2ccc(S(=O)(=O)Nc3cccc(Cl)c3C)cc2c1=O | inconclusive: 11.2 µM [inhibitor, full curve, poor fit] | –
12 | O=C(N/N=C/c1ccncc1)c1cc2c(ccc3ccccc32)o1 | inactive | –
13 | COc1ccc(N2CCCC2)c(NC(=O)COc2ccccc2)c1 | inconclusive: 56.2 µM [inhibitor, partial curve] | –
14 | CCc1c(C)nc2ccc(Br)cc2c1SCCC#N | inconclusive: 14.1 µM [inhibitor, partial curve] | –
15 | COc1ccc(NC(=O)c2ccccc2NS(=O)(=O)c2ccc(C)cc2)c([N+](=O)[O-])c1 | inconclusive: 39.8 µM [inhibitor, partial curve] | –
16 | COc1cccc(Nc2nnc(SCC(=O)N3CC(=O)Nc4ccccc43)s2)c1 | inconclusive: 25.1 µM [inhibitor, full curve] | –
17 | CC1(C)Cc2nc3oc4c(=S)nc[nH]c4c3cc2CO1 | active: 25.1 µM | –
18 | Cc1ccc(C)c(NC(=O)N2CCC(N3CCN(Cc4ccc(F)cc4)C(=O)C3=O)CC2)c1 | inactive | –
19 | COc1ccc(N2CCN(S(=O)(=O)c3c(C(=O)N4CCOCC4)c(C)n(C)c3C)CC2)cc1 | inactive | –
20 | CCCN(CCC)CC(O)Cn1cc(/C=C/C(=O)c2ccccc2)c2ccccc21 (configuration not stated) | inconclusive: 56.2 µM [inhibitor, partial curve] | –
21 | COC(=O)c1cc(-c2ccc(C)cc2)n[nH]1 | inactive | –
22 | COc1ccc(-c2nc(S(=O)(=O)c3ccccc3)c(N3CCOCC3)o2)cc1 | active: 79.4 µM | –
23 | O=C(O)CCc1ccc(-c2cccs2)n1CC1CCCO1 (configuration not stated) | inconclusive: 79.4 µM [inhibitor, partial curve] | –
24 | Cc1ccc2c(c1)c1c3n2CCN(C(=O)CN2CCN(C)CC2)C3CCC1 (configuration not stated) | inconclusive: 50.1 µM [inhibitor, partial curve] | –

Row | SMILES | Potency | activity change, negative = inhibition
25 | CC1(C)C2CCC1(C)C(OC(=O)CNc1ccccc1)C2 (configuration not stated) | – | inactive: 0% [at 11.4 µM]
26 | Cc1ccccc1CN1CCN(S(=O)(=O)c2cccc3nsnc23)CC1 | inconclusive: 31.6 µM [inhibitor, partial curve] | –
27 | CC(C)(C)c1ccc(OCCCC(=O)Nc2ccc(S(N)(=O)=O)cc2)cc1 | inactive | –
28 | CC1=N/C(=C/c2ccco2)C(=O)O1 | inconclusive: 89.1 µM [inhibitor, partial curve] | –
29 | N#Cc1c(-c2ccco2)nc(SCC(=O)Nc2cccc(Cl)c2)[nH]c1=O | inconclusive: 70.8 µM [inhibitor, single point] | –
30 | CCN=C1NN=C(c2cc(C)n(CCc3ccccc3)c2C)CS1 | active: 56.2 µM | –
31 | O=C(CCn1cnc(-c2ccccc2)c1-c1ccccc1)N/N=C/c1ccc(O)cc1 | active: 25.1 µM | –
32 | Cc1cc(C)n(-c2ccc(Oc3ccccc3)c(S(=O)(=O)O)c2)n1 | active: 89.1 µM | –
33 | Cn1nc(-c2ccc(Cl)cc2)c2cc(C(=O)N3CCN(C(=O)c4ccco4)CC3)sc21 | inconclusive: 56.2 µM [inhibitor, partial curve] | –
34 | COCCn1c(SC2CCCCC2=O)nnc1-c1ccncc1 (configuration not stated) | inconclusive: 39.8 µM [inhibitor, single point] | –
35 | COCCN(C(=O)CSc1nnc(C)n1Cc1ccccc1)c1c(N)n(CC(C)C)c(=O)[nH]c1=O | active: 79.4 µM | –
36 | CCC(=O)c1ccc(OCCn2cnc3ccccc32)cc1 | active: 79.4 µM | –
37 | CN1CCN(C(=O)c2sc(=S)n(-c3ccccc3)c2N)CC1 | active: 100 µM | –
38 | CCC12CN3CC(C)(CN(C1)C3c1c(C)n(C)c3ccccc13)C2=O (configuration not stated) | inactive | –
39 | C/C(=N/N=C/c1ccc(N(C)C)cc1)c1ccccc1 | inconclusive: 20 µM [inhibitor, partial curve] | –
40 | O=[N+]([O-])c1ccc2c(c1)C(N1CCOCC1)/C(=C/COc1ccc3ccccc3c1Br)O2 (configuration not stated) | inconclusive: 70.8 µM [inhibitor, single point] | –
41 | Cc1[nH]n(-c2cccc3ccccc23)c(=O)c1/C=N/c1sc2c(c1C#N)CCC2 | inconclusive: 56.2 µM [inhibitor, partial curve] | –
42 | O=C(Nc1ccccc1)[C@@H]1[C@@H]2C(=O)N(c3ccc(F)cc3)C(=O)[C@@H]2[C@H]2C=CC=NN21 | inactive | –
43 | CCN(CC)S(=O)(=O)c1ccc(OC)c(NC(=S)Nc2ccc(C)c(C)c2)c1 | inactive | –
44 | CN(C)c1ccc(CNC(=O)c2ccc(NC(=O)c3nsc4ccccc34)cc2)cc1 | inconclusive: 79.4 µM [inhibitor, partial curve] | –
45 | Cc1ccc(-c2csc(NCCn3c(-c4ccncc4)nc4ccccc43)n2)cc1 | inactive | –
46 | COc1cc(/C=C2/C(=N)N3C(=NC2=O)SN=C3S(C)(=O)=O)ccc1OS(=O)(=O)c1ccc(C)cc1 | active: 56.2 µM | –
47 | O=C(O)CC1(CC(=O)Nc2ccccc2N2CCOCC2)CCCC1 | inactive | –
48 | CCn1cc(C=C2C(=O)c3ccccc3C2=O)c2ccccc21 | inconclusive: 79.4 µM [inhibitor, partial curve] | –

Row | SMILES | Potency | activity change, negative = inhibition
49 | CN1CCN(/C=N/c2sc3c(c2C#N)CCCCC3)CC1 | inconclusive: 50.1 µM [inhibitor, partial curve] | –
50 | Cc1ccc(-c2nc(N)sc2-c2ccccc2)cc1C | inconclusive: 44.7 µM [inhibitor, partial curve] | –
51 | COc1ccc(NC(=O)N(Cc2nnc3n2CCCCC3)c2ccc(OC)c(Cl)c2)cc1 | inactive | –
52 | Cc1ccc(-n2c(-c3ccccc3)n[nH]c2=S)c(C)c1 | inconclusive: 39.8 µM [inhibitor, single point] | –
53 | C=CCSc1nnc(NC(=O)c2cn(CC)c3nc(C)ccc3c2=O)s1 | inconclusive: 7.94 µM [inhibitor, partial curve] | –
54 | COc1ccc2c(c1)C=C([C@@H]1C[C@H]3CN(c4ccccc4)C(=O)[C@]34CCCN14)CO2 | inconclusive: 17.8 µM [inhibitor, full curve] | –
55 | CCCCCCn1cc(C(=O)O)c(=O)c2ccccc21 | inconclusive: 89.1 µM [inhibitor, single point] | –
56 | O=C(CSc1cn[nH]n1)Nc1ccccc1C(F)(F)F | inactive | –
57 | Cc1cc(C)n2nc(C(=O)Nc3nnc(C4CC4)s3)nc2n1 | active: 8.91 µM | –
58 | CC(C)C(=O)N1CCC(n2nccc2NC(=O)CCc2ccccc2)CC1 | active: 25.1 µM | –
59 | CCOc1ccc(C2C(C#N)=C(N)SC(N)=C2C#N)cc1OCC | inconclusive: 89.1 µM [inhibitor, single point] | –
60 | COC(=O)c1sc(N2CCN(Cc3ccccc3)CC2)nc1N | inconclusive: 25.1 µM [inhibitor, partial curve] | –
61 | CCN(CCO)c1ncnc2c1sc1nc(CC(C)C)c3c(c12)CC(C)(C)OC3 | inconclusive: 79.4 µM [inhibitor, partial curve] | –
62 | COc1ccc(Oc2ccc(/C=N/NC(=O)c3cccnc3)cc2[N+](=O)[O-])cc1 | inconclusive: 79.4 µM [inhibitor, partial curve] | –
63 | CCC(C)c1nc2ccsc2c(N2CCOC2=O)c1-c1ccccc1 (configuration not stated) | inactive | –
64 | CCOc1ccccc1CNC(=O)CCCc1cn(C)c2ccccc12 | inconclusive: 56.2 µM [inhibitor, partial curve] | –
65 | O=c1oc2cc(O)ccc2cc1S(=O)(=O)c1ccccc1 | inactive | –
66 | Cc1ccc2nc(N3C(=O)C(O)=C(C(=O)c4cc5ccccc5o4)C3c3cccs3)sc2c1 (configuration not stated) | inconclusive: 56.2 µM [inhibitor, partial curve] | –
67 | N/C(=N\OC(=O)c1ccc(Cl)cc1[N+](=O)[O-])c1cccnc1 | inconclusive: 56.2 µM [inhibitor, partial curve] | –
68 | Cc1cc(-c2ccco2)n(CC(=O)O)n1 | inactive | –
69 | CC(C)n1c(SCC(=O)Nc2ccc(N3CCOCC3)cc2)nnc1-c1ccco1 | active: 31.6 µM | –
70 | C/C(=N\Nc1cc(N2CCCCC2)nc(C)n1)c1ccc(Br)cc1 | inconclusive: 56.2 µM [inhibitor, partial curve] | –
71 | COc1ccc2[nH]cc(CCNC(=O)Nc3ccccc3C)c2c1 | inconclusive: 63.1 µM [inhibitor, partial curve] | –
72 | Cc1cccc(NC(=O)C(C)Oc2ccc(C)nc2[N+](=O)[O-])c1 (configuration not stated) | inactive | –
